These results are taken from patent US20190367516A1 (Bayer Pharma Aktiengesellschaft, priority 2015, published 2019).

In this experiment the target is T1, human M2 receptor (Homo sapiens, UniProt P08172).
T1 sequence (P08172 1-466): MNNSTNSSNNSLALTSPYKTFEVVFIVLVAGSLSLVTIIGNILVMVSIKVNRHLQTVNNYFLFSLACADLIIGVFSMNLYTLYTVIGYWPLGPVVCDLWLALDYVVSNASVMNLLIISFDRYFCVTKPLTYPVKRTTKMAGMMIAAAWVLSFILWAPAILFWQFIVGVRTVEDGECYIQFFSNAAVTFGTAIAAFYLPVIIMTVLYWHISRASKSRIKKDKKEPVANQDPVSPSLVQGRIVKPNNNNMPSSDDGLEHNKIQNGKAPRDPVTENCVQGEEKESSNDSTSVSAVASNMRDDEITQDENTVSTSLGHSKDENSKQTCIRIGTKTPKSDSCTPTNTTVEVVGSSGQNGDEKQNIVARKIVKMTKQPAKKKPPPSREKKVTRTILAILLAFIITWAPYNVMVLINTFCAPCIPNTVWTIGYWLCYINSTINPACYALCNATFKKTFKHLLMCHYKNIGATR
Particulars: read-out: Efficiency, M2-GIRK1/4 activation test; boosting of the acetylcholine effect at an EC20 acetylcholine concentration.

For `CC[C@@H](NC(=O)c1cn(-c2ccc(F)cc2F)c2nc(N3CCC(C)(OC)C3=O)ccc2c1=O)C(F)(F)F` (mixture of isomers) [Example 197, 1-(2,4-Difluorophenyl)-7-[3-methoxy-3-methyl-2-oxopyrrolidin-1-yl]-4-oxo-N-[(2R)-1,1,1-trifluorobutan-2-yl]-1,4-dihydro-1,8-naphthyridine-3-carboxamide], the Emax came out at 92%.

For `CCC(NC(=O)c1cn(-c2ccccc2F)c2nc(N(C)C)ccc2c1=O)C(F)(F)F` (racemic) [Example 204, rac-7-(Dimethylamino)-1-(2-fluorophenyl)-4-oxo-N-[1,1,1-trifluorobutan-2-yl]-1,4-dihydro-1,8-naphthyridine-3-carboxamide], the Emax came to 92.5%.

On to `O=C(NC(c1ccccc1Cl)C(F)(F)F)c1cn(-c2ccc(F)cc2F)c2nc(N3CCCC(O)C3=O)ccc2c1=O` (racemic) [Example 206, rac-N-[(1R)-(2-Chlorophenyl)-2,2,2-trifluoroethyl]-1-(2,4-difluorophenyl)-7-[3-hydroxy-2-oxopiperidin-1-yl]-4-oxo-1,4-dihydro-1,8-naphthyridine-3-carboxamide], for which the Emax stood at 95.8%.

As for `O=C(NC(c1ccccc1Cl)C(F)(F)F)c1cn(-c2ccc(F)cc2F)c2nc(N3C[C@@H](O)CC3=O)ccc2c1=O` (mixture of isomers) [Example 211, N-[1-(2-Chlorophenyl)-2,2,2-trifluoroethyl]-1-(2,4-difluorophenyl)-7-[(4S)-4-hydroxy-2-oxopyrrolidin-1-yl]-4-oxo-1,4-dihydro-1,8-naphthyridine-3-carboxamide], the Emax came out at 94.8%.

For the compound `CC(NC(=O)c1cn(-c2ccc(F)cc2F)c2nc(N3C[C@@H](O)CC3=O)ccc2c1=O)c1c(F)cccc1F` (mixture of isomers) [Example 214, 1-(2,4-Difluorophenyl)-N-[1-(2,6-difluorophenyl)ethyl]-7-[(4S)-4-hydroxy-2-oxopyrrolidin-1-yl]-4-oxo-1,4-dihydro-1,8-naphthyridine-3-carboxamide], the Emax turned out to be 97%.

Regarding `CC[C@@H](NC(=O)c1cn(-c2ccc(F)cc2F)c2nc(N3CC4CNC(=O)C4C3)ccc2c1=O)C(F)(F)F` (mixture of isomers) [Example 221, 1-(2,4-Difluorophenyl)-4-oxo-7-[4-oxohexahydrpyrrolo[3,4-c]pyrrol-2(1H)-yl]-N-[(2R)-1,1,1-trifluorobutan-2-yl]-1,4-dihydro-1,8-naphthyridine-3-carboxamide], the Emax worked out at 97.5%.

As to `CC[C@@H](NC(=O)c1cn(-c2ccc(F)cc2F)c2nc(N3CCC(O)C3=O)ccc2c1=O)C(F)(F)F` (mixture of isomers) [Example 224, 1-(2,4-Difluorophenyl)-7-[3-hydroxy-2-oxopyrrolidin-1-yl]-4-oxo-N-[(2R)-1,1,1-trifluorobutan-2-yl]-1,4-dihydro-1,8-naphthyridine-3-carboxamide], the Emax stood at 97.5%.

Take `CC(COC(F)(F)F)NC(=O)c1cn(-c2ccc(F)cc2F)c2nc(N3CC[C@H](F)C3)ccc2c1=O` (mixture of isomers) [Example 227, 1-(2,4-Difluorophenyl)-7-[(3S)-3-fluoropyrrolidin-1-yl]-4-oxo-N-[1-(trifluoromethoxy)propan-2-yl]-1,4-dihydro-1,8-naphthyridine-3-carboxamide]: the Emax turned out to be 89.5%.

Consider `CC(COC(F)(F)F)NC(=O)c1cn(-c2ccc(F)cc2F)c2nc(N3CCCC3=O)ccc2c1=O` (racemic) [Example 230, rac-1-(2,4-Difluorophenyl)-4-oxo-7-(2-oxopyrrolidin-1-yl)-N-[1-(trifluoromethoxy)propan-2-yl]-1,4-dihydro-1,8-naphthyridine-3-carboxamide], for which the Emax worked out at 66.3%.

As to `CC(COC(F)(F)F)NC(=O)c1cn(-c2ccc(F)cc2F)c2nc(N(C)C)ccc2c1=O` (racemic) [Example 231, 1-(2,4-Difluorophenyl)-7-(dimethylamino)-4-oxo-N-[1-(trifluoromethoxy)propan-2-yl]-1,4-dihydro-1,8-naphthyridine-3-carboxamide], the Emax was 95.4%.

For `CC(COC(F)(F)F)NC(=O)c1cn(-c2ccc(F)cc2F)c2nc(N3CCCC3)ccc2c1=O` (racemic) [Example 232, 1-(2,4-Difluorophenyl)-4-oxo-7-(pyrrolidin-1-yl)-N-[1-(trifluoromethoxy)propan-2-yl]-1,4-dihydro-1,8-naphthyridine-3-carboxamide], the Emax stood at 91.8%.

With `O=C(NC(COC(F)(F)F)c1ccccc1)c1cn(-c2ccc(F)cc2F)c2nc(N3C[C@@H](O)CC3=O)ccc2c1=O` (mixture of isomers) [Example 233, 1-(2,4-Difluorophenyl)-7-[(4S)-4-hydroxy-2-oxopyrrolidin-1-yl]-4-oxo-N-[1-phenyl-2-(trifluoromethoxy)ethyl]-1,4-dihydro-1,8-naphthyridine-3-carboxamide], the Emax was determined as 100%.

Regarding `O=C(NC(c1c(F)cccc1F)C(F)(F)F)c1cn(-c2ccc(F)cc2F)c2nc(N3CC[C@H](F)C3)ccc2c1=O` (mixture of isomers) [Example 241, 1-(2,4-Difluorophenyl)-N-[1-(2,6-difluorophenyl)-2,2,2-trifluoroethyl]-7-[(3S)-3-fluoropyrrolidin-1-yl]-4-oxo-1,4-dihydro-1,8-naphthyridine-3-carboxamide], the Emax was determined as 95.8%.

For the compound `O=C(NC(c1c(F)cccc1F)C(F)(F)F)c1cn(-c2ccc(F)cc2F)c2nc(N3C[C@@H](O)CC3=O)ccc2c1=O` (mixture of isomers) [Example 244, 1-(2,4-Difluorophenyl)-N-[1-(2,6-difluorophenyl)-2,2,2-trifluoroethyl]-7-[(4S)-4-hydroxy-2-oxopyrrolidin-1-yl]-4-oxo-1,4-dihydro-1,8-naphthyridine-3-carboxamide], the Emax came out at 93.7%.

For `O=C(NC(c1c(F)cccc1F)C(F)(F)F)c1cn(-c2ccc(F)cc2F)c2nc(N3CCC(O)CC3=O)ccc2c1=O` (racemic) [Example 252, rac-1-(2,4-Difluorophenyl)-N-[1-(2,6-difluorophenyl)-2,2,2-trifluoroethyl]-7-[4-hydroxy-2-oxopiperidin-1-yl]-4-oxo-1,4-dihydro-1,8-naphthyridine-3-carboxamide], the Emax came to 95.5%.

In the case of `CC[C@@H](NC(=O)c1cn(-c2c(F)cccc2F)c2nc(N3CC(CO)OC3=O)ccc2c1=O)C(F)(F)F` (mixture of isomers) [Example 260, rac-1-(2,6-Difluorophenyl)-7-[5-(hydroxymethyl)-2-oxo-1,3-oxazolidin-3-yl]-4-oxo-N-[(2R)-1,1,1-trifluorobutan-2-yl]-1,4-dihydro-1,8-naphthyridine-3-carboxamide], the Emax worked out at 96.5%.

Consider `CC[C@@H](NC(=O)c1cn(-c2ccc(F)cc2F)c2nc(N3CCOC(C(F)F)C3)ccc2c1=O)C(F)(F)F` (mixture of isomers) [Example 263, 7-[2-(Difluoromethyl)morpholin-4-yl]-1-(2,4-difluorophenyl)-4-oxo-N-[(2R)-1,1,1-trifluorobutan-2-yl]-1,4-dihydro-1,8-naphthyridine-3-carboxamide], for which the Emax worked out at 68.5%.

As for `CC[C@@H](NC(=O)c1cn(-c2ccc(F)cc2F)c2nc(N3CC4CC4(O)C3)ccc2c1=O)C(F)(F)F` (mixture of isomers) [Example 267, 1-(2,4-Difluorophenyl)-7-[1-hydroxy-3-azabicyclo[3.1.0]hex-3-yl]-4-oxo-N-[(2R)-1,1,1-trifluorobutan-2-yl]-1,4-dihydro-1,8-naphthyridine-3-carboxamide], the Emax came out at 100%.

On to `CC[C@@H](NC(=O)c1cn(-c2c(F)cccc2F)c2nc(N3CCC(C)(O)C3)ccc2c1=O)C(F)(F)F` (mixture of isomers) [Example 276, 1-(2,6-Difluorophenyl)-7-[3-hydroxy-3-methylpyrrolidin-1-yl]-4-oxo-N-[(2R)-1,1,1-trifluorobutan-2-yl]-1,4-dihydro-1,8-naphthyridine-3-carboxamide], for which the Emax amounted to 100%.

For the compound `CC[C@@H](NC(=O)c1cn(-c2c(F)cc(F)cc2F)c2nc(N3CCC(O)C3=O)ccc2c1=O)C(F)(F)F` (mixture of isomers) [Example 280, 7-[3-Hydroxy-2-oxopyrrolidin-1-yl]-4-oxo-N-[(2R)-1,1,1-trifluorobutan-2-yl]-1-(2,4,6-trifluorophenyl)-1,4-dihydro-1,8-naphthyridine-3-carboxamide], the Emax was 96.5%.

In the case of `O=C(NC(C1CC1)C(F)(F)F)c1cn(-c2ccc(F)cc2F)c2nc(N3C[C@@H](O)CC3=O)ccc2c1=O` (mixture of isomers) [Example 283], the Emax was found to be 97%.

For the compound `O=C(NC(c1ccccc1Cl)C(F)(F)F)c1cn(-c2ccccc2F)c2nc(N3CCC(O)C3=O)ccc2c1=O` (racemic) [Example 287, N-[1-(2-Chlorophenyl)-2,2,2-trifluoroethyl]-1-(2-fluorophenyl)-7-[3-hydroxy-2-oxopyrrolidin-1-yl]-4-oxo-1,4-dihydro-1,8-naphthyridine-3-carboxamide], the Emax was 94.8%.

In the case of `CC[C@@H](NC(=O)c1cn(-c2c(F)cccc2F)c2nc(N3CCC(O)C3=O)ccc2c1=O)C(F)(F)F` (mixture of isomers) [Example 292, 1-(2,6-Difluorophenyl)-7-[3-hydroxy-2-oxopyrrolidin-1-yl]-4-oxo-N-[(2R)-1,1,1-trifluorobutan-2-yl]-1,4-dihydro-1,8-naphthyridine-3-carboxamide], the Emax amounted to 90.5%.

With `O=C(NC(C1CC1)C(F)(F)F)c1cn(-c2c(F)cccc2F)c2nc(N3C[C@@H](O)CC3=O)ccc2c1=O` (mixture of isomers) [Example 295, N-[1-Cyclopropyl-2,2,2-trifluoroethyl]-1-(2,6-difluorophenyl)-7-[(4S)-4-hydroxy-2-oxopyrrolidin-1-yl]-4-oxo-1,4-dihydro-1,8-naphthyridine-3-carboxamide], the Emax came out at 100%.
